Among all 94,000 compounds or so, about 4,000 (4.3%) were called active. The shares of active, inactive and inconclusive entries below differ from those in the screen. Calls follow the shape of the dose curve; as a rule, active = well fitted inhibition curve with a large enough effect; inconclusive = small, poorly fitted or top-dose-only effect; inactive = no such curve, though single readings can be large or run the other way. Potencies beside an inconclusive call are fits to weak or partial responses and may not hold up.
test: Cytotoxic Profiling in NIH 3T3 Cell Line of Diverse Libraries Using Quantitative High-Throughput Screening; conditions: NIH 3T3 viability, CellTiter-Glo ATP luminescence, 48-72 h; activity change, negative = cytotoxicity: at 96.7 µM (top of the series) unless noted; series mostly up to 96.7 µM; also: nearly all actives have a fitted effect of over 55% in size
In short: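 Cytotoxicity was measured by CellTiter-Glo ATP luminescence after 48 or 72 h compound exposure at 37 °C. Mouse NIH 3T3 fibroblasts were seeded at 400 cells/well and dosed by 23 nL pin transfer.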
% is scaled to controls: 0 for no effect and ±100 for the full control effect; potency is read from the fitted curve at half-maximal effect; tags tell the direction and shape of the fitted curve.

Row | SMILES | Potency | outcome | activity change, negative = cytotoxicity
1 | Cc1ccc(Nc2ccnc(N3CCCN([S+](=O)([O-])c4c(C)noc4C)C3)n2)cc1 | inconclusive: 35.5 µM [inhibitor, partial curve, poor fit] |  | 
2 | C[C@]1(CO)[C@H]2Cc3sc(NC(=O)c4ccc(F)cc4)nc3[C@@H](CC(=O)NC3CCCCC3)[C@]2(C)CC[C@H]1O | inconclusive: 50.1 µM [inhibitor, partial curve, poor fit] |  | 
3 | COc1ccc(C(=O)N2CC(=O)N(Cc3c(OC)cccc3OC)CC(O)C2)cc1 (stereo not drawn) | inconclusive: 70.8 µM [inhibitor, single point] |  | 
4 | COCC(=O)N[C@H]1C[C@@H](Cc2cc(CN(C)C)on2)C1(C)C |  | inactive [at 138 µM] | 
5 | Cc1ccc(-c2noc([C@@H]3C[C@@H](O)CN3Cc3cccc(C#N)c3)n2)cc1F | inconclusive: 126 µM [inhibitor, single point] |  | 
6 | C=CCCC(=O)N1C[C@@H](C(=O)OCC)[C@@H]2Oc3ccccc3[C@@H]21 | inconclusive: 50.1 µM [inhibitor, single point] |  | 
7 | CCCNC(=O)CCC1CCN(c2cc(NCCC)ncn2)CC1 |  |  | inactive: -11%
8 | COc1ccc(CC2(CO)CCN(c3nccc(N)n3)CC2)cc1 |  |  | inactive: -34.1%
9 | CC(c1ccc(F)cc1)N1Cc2cc(NC(=O)Cc3cccs3)ccc2OCC1=O (stereo not drawn) | inconclusive: 50.1 µM [inhibitor, partial curve, poor fit] |  | 
10 | Cc1cccnc1CNC[C@H]1O[C@@H]2C[C@@H](CC(=O)NCc3nccn3C)O[C@@H]2[C@@H]1O |  |  | inactive: -22.9% [at 174 µM]
11 | O=C(Nc1cc(Cl)cc(Cl)c1)c1ccn2nccc2c1 | inconclusive: 56.2 µM [inhibitor, partial curve, poor fit] |  | 
12 | Cn1cc(-c2ccncc2)cc1C(=O)N1CCN(c2ccc(F)cc2)CC1 | inconclusive: 35.5 µM [inhibitor, partial curve, poor fit] |  | 
13 | CCc1cccc(NC(=O)[C@@H]2CN(S(C)(=O)=O)C[C@H]2c2ccncc2)c1 |  |  | inactive: -12.5%
14 | O=C(NCCc1noc(-c2ccncc2)n1)c1ccccc1F |  |  | inactive: -18.5%
15 | Cc1cc(N2CCC(NCc3nc[nH]c3C)CC2)nc(-c2ccccc2O)n1 | active: 35.5 µM |  | 
16 | CC(C)c1ccc(NC(=O)N[C@H]2CO[C@H]3[C@@H]2OC[C@H]3OCc2ccccc2)cc1 | inconclusive: 50.1 µM [inhibitor, partial curve, poor fit] |  | 
17 | CN(CCO)c1ccc(C(=O)N2CCC(Oc3cccnc3)CC2)cn1 |  |  | inactive: 2.99%
18 | c1c[nH]c(CNC[C@H]2Cn3ccnc3CO2)n1 | inconclusive: 141 µM [inhibitor, single point] |  | 
19 | Cc1nc(CN2CCOc3c(O)cc(-c4nc5ccccc5s4)cc3C2)no1 |  |  | inactive: -23.3%
20 | NC(=O)c1cccc(-c2ccc3c(n2)CN(Cc2ccc(C(F)(F)F)cc2)C(=O)CO3)c1 | inconclusive: 50.1 µM [inhibitor, partial curve, poor fit] |  | 
21 | Cc1noc2c(N(C)C)cc(-c3ccc(Cl)cc3)nc12 | inconclusive: 28.2 µM [inhibitor, full curve] |  | 

Row | SMILES | Potency | outcome | activity change, negative = cytotoxicity
22 | COCCNC(=O)c1cc(-c2ccc(C(F)(F)F)cc2)nc2c1cnn2C | inconclusive: 50.1 µM [inhibitor, partial curve, poor fit] |  | 
23 | CNc1nccc(N2CCC(CC(=O)NCCC(C)C)CC2)n1 | inconclusive: 39.8 µM [inhibitor, partial curve] |  | 
24 | Cc1ccc(C(=O)N2CCN(Cc3ccccc3-c3ccc(C)c(Cl)c3)CC2)cc1 | inconclusive: 44.7 µM [inhibitor, partial curve, poor fit] |  | 
25 | O=C(Nc1cc(-c2ccncc2)nn1-c1ccccc1)c1ccc(Cl)nc1 | inconclusive: 50.1 µM [inhibitor, partial curve, poor fit] |  | 
26 | O=C(NCc1cccc(Cl)c1)c1ccc2nc(-c3ccncc3)oc2c1 | inconclusive: 39.8 µM [inhibitor, full curve] |  | 
27 | Cc1nn(-c2ccccc2)c2c1C(C(C)C)N(C1CN(C(=O)c3ccc(Cl)nc3)C1)C2=O (stereo not drawn) |  |  | inactive: 2.41%
28 | Cc1ccc(C(=O)N2CCC(N3C(=O)c4c(c(C)nn4-c4ccccc4)C3C3CC3)C2)cc1 (stereo not drawn) | active: 17.8 µM |  | 
29 | CN(C)c1cccc(C(=O)N2CCC(n3cc(-c4nc(-c5ccccc5)no4)nn3)C2)c1 (stereo not drawn) | inconclusive: 44.7 µM [inhibitor, partial curve] |  | 
30 | COc1ccc(-c2ccc3ncc(Nc4cc(F)cc(N5CCOCC5)c4)n3n2)cn1 |  |  | inactive: -19.1% [at 138 µM]
31 | COc1ccc(OCC2(C)COc3ccc(C(=O)N(C)c4ccccc4)cc3N2)cc1 (stereo not drawn) | inconclusive: 70.8 µM [inhibitor, partial curve, poor fit] |  | 
32 | CC(C)C(=O)N1CCC(COc2ccc3c(cnn3CC[S+](C)(=O)[O-])c2)CC1 | inconclusive: 44.7 µM [inhibitor, single point] |  | 
33 | O=C(NCc1ccc2c(c1)OCO2)C1CCCN(Cc2cccc(-c3ccc(F)cc3F)c2)C1 (stereo not drawn) | inconclusive: 39.8 µM [inhibitor, partial curve, poor fit] |  | 
34 | O=C1CCN(CC(O)Cc2ccccc2)c2ccccc2CN1C1CCCC1 (stereo not drawn) | inconclusive: 50.1 µM [inhibitor, partial curve, poor fit] |  | 
35 | COc1ccccc1Nc1cnc2ccc(-c3cccc(CO)c3)nn12 | inconclusive: 56.2 µM [inhibitor, partial curve, poor fit] |  | 
36 | CC#CCn1cc2c3c(cccc31)[C@H](CC(C)C)N[C@H](C(=O)NCc1cccs1)C2 | inconclusive: 100 µM [inhibitor, partial curve] |  | 
37 | Cc1noc(CN(C)C(=O)c2ccc3oc(Cc4ccc(Cl)cc4)nc3c2)n1 | inconclusive: 50.1 µM [inhibitor, partial curve, poor fit] |  | 
38 | O=C(c1ccc(F)cc1)N1CCCN(c2ccnc3ccnn23)CC1 | inconclusive: 50.1 µM [inhibitor, partial curve, poor fit] |  | 
39 | COc1ccc(C(=O)N2CCCN(c3cc(-c4ccc(Cl)cc4)[nH]n3)CC2)cc1F | active: 25.1 µM |  | 
40 | Cc1nn2c(c1-c1cccnc1N1CCOCC1)N(CC1CCOCC1)CCC2 | active: 35.5 µM |  | 
41 | Cc1oc2c(c1C(=O)NC(C)c1ccco1)CN(Cc1ccc(F)cc1)CC2 (stereo not drawn) | inconclusive: 50.1 µM [inhibitor, partial curve, poor fit] |  | 
42 | CC(CNc1nccc(C2(c3ccccc3Cl)CCNCC2)n1)CN(C)C (stereo not drawn) | inconclusive: 89.1 µM [inhibitor, single point] |  | 

Row | SMILES | Potency | outcome | activity change, negative = cytotoxicity
43 | CCCN1CCc2[nH]cnc2C12CCN(C(=O)Cn1cc(C)c(=O)[nH]c1=O)CC2 |  |  | inactive: -1.26%
44 | COCCNC(=O)c1cccc(-c2ccc(OC)nn2)c1 |  |  | inactive: -23% [at 138 µM]
45 | O=C1NCC(c2ccc(Cl)cc2)Cc2[nH]c(-c3ccc(O)cc3)nc21 (stereo not drawn) | inconclusive: 17.8 µM [inhibitor, full curve] |  | 
46 | O=C1Nc2ccccc2CC12CN(Cc1ccc(F)c(F)c1F)C2 |  |  | inactive: -23%
47 | CC1=C[C@@H](CNCc2cccnc2)[C@H](C(C)C)C[C@H]1Cc1nnc(-c2ccncc2)o1 | inconclusive: 70.8 µM [inhibitor, partial curve] |  | 
48 | COc1cc(F)ccc1-c1cnc2n[nH]c(-c3ccc4c(c3)OCO4)c2n1 | active: 25.1 µM |  | 
49 | CC(C)c1noc([C@H]2C[C@@H]3C(=O)NCCCCCCN(C(=O)Cc4cccnc4)[C@@H]3C2)n1 | inconclusive: 15.8 µM [inhibitor, full curve, poor fit] |  | 
50 | O=C(CCc1ccccc1)N1CCC2OCCN(Cc3ccccc3F)C(=O)C2C1 (stereo not drawn) | inconclusive: 44.7 µM [inhibitor, partial curve, poor fit] |  | 
51 | CSc1cccc(NC(=O)Cn2c(C)cc3nc4n(c(=O)c32)CCCCC4)c1 |  |  | inactive: -17.4%
52 | C[C@@H](c1ccccc1)N1C(=O)[C@@H]2CN(C(=O)CSc3ccncc3)CCN2C1=O | inconclusive: 100 µM [inhibitor, partial curve, poor fit] |  | 
53 | Cc1cc(F)ccc1OC1CN(Cc2ccc(F)cc2)C1 | inconclusive: 63.1 µM [inhibitor, partial curve, poor fit] |  | 
54 | Cc1nn(-c2ccccc2)c(Oc2ccc(F)cc2F)c1CCC(=O)NC1CC1 | inconclusive: 50.1 µM [inhibitor, single point] |  | 
55 | CC(C)CCN1CCn2c(nn(-c3ccc([N+](=O)[O-])cc3)c2=O)C1 | inconclusive: 89.1 µM [inhibitor, partial curve, poor fit] |  | 
56 | COc1ccc(C(=O)N2CCC(Cc3nc(-c4ccccc4)no3)CC2)cc1OC | inconclusive: 17.8 µM [inhibitor, partial curve, poor fit] |  | 
57 | COc1cccc(CNC(=O)c2cc(-c3cccc(C(F)(F)F)c3)nc3c2cnn3C)c1 |  |  | inactive: -3.25%
58 | O=C(Nc1ccccc1F)N1CCC(Oc2ccccc2-c2nc(C3CC3)no2)C1 (stereo not drawn) | inconclusive: 44.7 µM [inhibitor, partial curve, poor fit] |  | 
59 | CCN(CC1CCCO1)C(=O)C1CCN(c2nc(-c3ccccc3)nc3c2CCC3)CC1 (stereo not drawn) | inconclusive: 25.1 µM [inhibitor, partial curve] |  | 
60 | CNC(=O)c1cccc(-c2cnc3[nH]cc(CC(=O)NCC(C)C)c3c2)c1 | active: 35.5 µM |  | 
61 | N#Cc1ccccc1S(=O)(=O)N[C@H]1CO[C@H]2[C@@H]1OC[C@H]2OC(=O)Nc1cccc(C(F)(F)F)c1 | inconclusive: 56.2 µM [inhibitor, partial curve, poor fit] |  | 
62 | CN1CCN(c2ncnc3sc4c(c23)CCNC4)CC1 | inconclusive: 50.1 µM [inhibitor, partial curve, poor fit] |  | 
63 | COc1ccccc1-c1ccnc(N[C@H]2CO[C@H]3[C@@H]2OC[C@@H]3NS(=O)(=O)c2ccc(NC(C)=O)cc2)n1 | inconclusive: 31.6 µM [inhibitor, full curve] |  | 

From PubChem BioAssay AID1345082 (National Center for Advancing Translational Sciences (NCATS), 2018)
